This note sets out measurements from a collection of fitness landscapes (doi:10.1038/s41467-024-54723-y).

In all, about 18,000 sequences were measured (“TetR repression strength (sort-seq, GFP reporter)”: median about 0.23, highest 2% from about 0.68 on). Some of the results follow.

Chain of UniProt P04483 (P04483 whole entry): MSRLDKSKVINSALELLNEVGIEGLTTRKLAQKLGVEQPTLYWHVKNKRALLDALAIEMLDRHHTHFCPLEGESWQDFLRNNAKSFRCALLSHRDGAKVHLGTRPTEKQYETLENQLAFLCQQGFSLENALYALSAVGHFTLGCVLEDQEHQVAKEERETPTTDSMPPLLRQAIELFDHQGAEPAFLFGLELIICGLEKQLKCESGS

The experiment addresses TetR (class B, Tn10) (UniProt P04483). As to the kind of experiment: TetR repression strength (sort-seq, GFP reporter) (relative to tetO2 = 1); higher = stronger repression. Conditions: E. coli. A digest of the protocol:
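E. coli SIG10-MAX carried a low-copy plasmid library with eight randomized operator positions between a constitutive promoter and sfGFP, with TetR constitutively expressed. Cells grew 5 h at 37 °C in LB with 50 µg/mL chloramphenicol, then 10^6 cells were FACS-sorted into 13 fluorescence bins, each Illumina-sequenced. Repression strength is the top bin index plus one minus the read-weighted mean bin, divided by the wild-type operator value. Three independent transformations; variants with ≥30 reads in all replicates and CV ≤0.5 were averaged.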
As for TCCCCGCTAGTAGGTGAGA, the TetR repression strength came out at 0.0856.

Take TCCCGGTCAGTGCCAGAGA: the TetR repression strength was determined as 0.271.

For TCCCACGTAGTCCCTGAGA, the TetR repression strength was found to be 0.422.

For the sequence TCCCTTATAGTGTATGAGA, the TetR repression strength is 0.0968.

TCCCTAGGAGTGAAGGAGA had a TetR repression strength of 0.129.

TCCCACCCAGTGGCTGAGA returned a TetR repression strength of 0.127.

Consider TCCCAGAGAGTGGAAGAGA, for which the TetR repression strength turned out to be 0.148.

TCCCATGTAGTCCTCGAGA came in with a TetR repression strength of 0.299.

Take TCCCTCCTAGTGGGGGAGA: the TetR repression strength worked out at 0.13.

As for TCCCGTAGAGTTTGAGAGA, the TetR repression strength came to 0.0224.

With TCCCCAATAGTTAGGGAGA, the TetR repression strength was 0.699.

The sequence TCCCTGGTAGTGACAGAGA showed a TetR repression strength of 1.03.

As for TCCCGTTTAGTGGAGGAGA, the TetR repression strength amounted to 0.132.

For the sequence TCCCGGGCAGTAGGCGAGA, the TetR repression strength stood at 1.05.

Turning to TCCCGTCCAGTCCGTGAGA, the TetR repression strength amounted to 0.341.

The sequence TCCCGGCCAGTATGCGAGA came in with a TetR repression strength of 0.209.

In the case of TCCCTTCAAGTCGCCGAGA, the TetR repression strength was 0.402.

TCCCTAGAAGTCCTCGAGA had a TetR repression strength of 0.314.

Regarding TCCCCTGAAGTCTTCGAGA, the TetR repression strength stood at 0.

As to TCCCGCACAGTAATAGAGA, the TetR repression strength worked out at 0.298.

Consider TCCCAATAAGTCTGGGAGA, for which the TetR repression strength is 0.173.

TCCCAACGAGTTCTTGAGA yielded a TetR repression strength of 0.184.

TCCCACTAAGTGGAGGAGA returned a TetR repression strength of 0.267.

Sequence TCCCGCTTAGTCTCAGAGA came in with a TetR repression strength of 0.229.

In turn, TCCCAGTCAGTACCCGAGA returned a TetR repression strength of 0.354.

In turn, TCCCGGTAAGTGCTTGAGA showed a TetR repression strength of 0.248.

For TCCCCGTTAGTGCGGGAGA, the TetR repression strength amounted to 0.0422.

The sequence TCCCGGACAGTGGGAGAGA showed a TetR repression strength of 0.281.

Take TCCCCCAGAGTGTGAGAGA: the TetR repression strength came out at 0.0598.

As for TCCCAGTGAGTTTTGGAGA, the TetR repression strength was determined as 0.132.

The sequence TCCCATCCAGTGTGGGAGA displayed a TetR repression strength of 0.217.

With TCCCGGTGAGTGGGGGAGA, the TetR repression strength was found to be 0.203.

TCCCGAGTAGTGCGGGAGA yielded a TetR repression strength of 0.182.

TCCCACGGAGTTGAGGAGA: the TetR repression strength stood at 0.262.

Regarding TCCCTGCAAGTGGCGGAGA, the TetR repression strength came to 0.293.

Turning to TCCCATCTAGTGAAGGAGA, the TetR repression strength came to 0.627.

With TCCCAGCGAGTAGCTGAGA, the TetR repression strength amounted to 0.139.

TCCCAACAAGTACCTGAGA had a TetR repression strength of 0.31.

In the case of TCCCTCCGAGTGTTAGAGA, the TetR repression strength was found to be 0.415.

TCCCGATCAGTAGTAGAGA gave a TetR repression strength of 0.459.

For TCCCGATTAGTGCGTGAGA, the TetR repression strength is 0.197.

Take TCCCACTCAGTTATCGAGA: the TetR repression strength came to 0.617.

TCCCCGGGAGTGCCCGAGA: the TetR repression strength amounted to 0.0528.

Take TCCCACCCAGTGGGCGAGA: the TetR repression strength is 0.404.

TCCCATTGAGTGCATGAGA came in with a TetR repression strength of 0.244.

As to TCCCATTAAGTGTTAGAGA, the TetR repression strength turned out to be 0.277.

With TCCCCAGGAGTGGGGGAGA, the TetR repression strength is 0.142.

TCCCGGAGAGTTGTAGAGA gave a TetR repression strength of 0.158.

TCCCTATTAGTCACTGAGA displayed a TetR repression strength of 0.322.

TCCCGTGGAGTCAAGGAGA registered a TetR repression strength of 0.486.

With TCCCCAGTAGTTTGCGAGA, the TetR repression strength worked out at 0.202.

With TCCCCTATAGTGCTAGAGA, the TetR repression strength amounted to 0.285.

TCCCAATCAGTGTAAGAGA registered a TetR repression strength of 0.74.

TCCCTCAGAGTACGCGAGA had a TetR repression strength of 0.338.

In turn, TCCCTATGAGTCTCGGAGA displayed a TetR repression strength of 0.204.

Consider TCCCATTCAGTTTATGAGA, for which the TetR repression strength is 0.248.

In the case of TCCCTCCGAGTACGGGAGA, the TetR repression strength was determined as 0.613.

Turning to TCCCTGGAAGTGCCAGAGA, the TetR repression strength turned out to be 0.368.

Consider TCCCTTAGAGTCATGGAGA, for which the TetR repression strength was 0.0217.

Sequence TCCCAACAAGTACTAGAGA displayed a TetR repression strength of 0.143.

Consider TCCCAAGAAGTGTCGGAGA, for which the TetR repression strength is 0.318.

As for TCCCATGCAGTGGCTGAGA, the TetR repression strength amounted to 0.152.

As to TCCCGGTCAGTTGGGGAGA, the TetR repression strength worked out at 0.275.

The sequence TCCCGAAGAGTGGGAGAGA displayed a TetR repression strength of 0.0852.

For TCCCCTGGAGTTCGGGAGA, the TetR repression strength was 0.015.

TCCCTGTAAGTAGGGGAGA yielded a TetR repression strength of 0.115.

On to TCCCCCTCAGTCGCGGAGA, for which the TetR repression strength was found to be 0.259.

Sequence TCCCATTGAGTTAGGGAGA came in with a TetR repression strength of 0.273.

In turn, TCCCCTGGAGTCGTGGAGA had a TetR repression strength of 0.258.

With TCCCCACCAGTGCCAGAGA, the TetR repression strength worked out at 0.642.

With TCCCCTCGAGTGGGCGAGA, the TetR repression strength came to 0.179.

TCCCTGACAGTAGTTGAGA: the TetR repression strength came to 0.122.

TCCCGCATAGTTGAAGAGA returned a TetR repression strength of 0.472.

TCCCCTTGAGTTGATGAGA had a TetR repression strength of 0.327.

In turn, TCCCCCTTAGTTGAGGAGA had a TetR repression strength of 0.114.

Regarding TCCCTCGGAGTTGTAGAGA, the TetR repression strength came out at 0.0421.

In the case of TCCCCGTGAGTGGGCGAGA, the TetR repression strength is 0.0545.

In turn, TCCCTGTAAGTCGTGGAGA registered a TetR repression strength of 0.309.

TCCCGTACAGTATGCGAGA registered a TetR repression strength of 0.104.

TCCCCAGGAGTGGCTGAGA registered a TetR repression strength of 0.0764.

The sequence TCCCAGTAAGTGGGAGAGA came in with a TetR repression strength of 0.137.

In turn, TCCCTATTAGTTGCAGAGA showed a TetR repression strength of 0.498.

On to TCCCCAGAAGTTGGTGAGA, for which the TetR repression strength was found to be 0.0426.

TCCCGGTGAGTTTAGGAGA returned a TetR repression strength of 0.231.

Turning to TCCCACTAAGTTTGAGAGA, the TetR repression strength worked out at 0.374.

In turn, TCCCGGCGAGTGAGAGAGA registered a TetR repression strength of 0.539.

TCCCAGATAGTGAAGGAGA displayed a TetR repression strength of 0.344.

Sequence TCCCGGGAAGTCCAAGAGA gave a TetR repression strength of 0.169.

As for TCCCACAGAGTCAATGAGA, the TetR repression strength stood at 0.487.

TCCCACAGAGTCGTGGAGA had a TetR repression strength of 0.295.

With TCCCCCAGAGTGACGGAGA, the TetR repression strength worked out at 0.265.

In the case of TCCCAAGTAGTCGCGGAGA, the TetR repression strength is 0.0901.

As for TCCCCTACAGTTCAAGAGA, the TetR repression strength worked out at 0.457.

TCCCCTACAGTCATTGAGA had a TetR repression strength of 0.403.

In the case of TCCCTTTGAGTGAATGAGA, the TetR repression strength amounted to 0.472.

On to TCCCTAAAAGTGGTGGAGA, for which the TetR repression strength is 0.155.

For the sequence TCCCGCTGAGTGGAAGAGA, the TetR repression strength is 0.0346.

Turning to TCCCCTTTAGTGGCCGAGA, the TetR repression strength was found to be 0.278.

Sequence TCCCAGAGAGTGCTAGAGA returned a TetR repression strength of 0.0479.

TCCCCCGTAGTTATGGAGA yielded a TetR repression strength of 0.161.

The sequence TCCCAATCAGTCATGGAGA had a TetR repression strength of 0.158.

On to TCCCTTCGAGTTGTAGAGA, for which the TetR repression strength is 0.382.
